The data set deals with the molecule itself. In words: SEC. (SEC sorts molecules by how far they enter the pores of the column.)

B1: TRPV1-MBP fusion protein (maltose binding protein fused to the N terminus of TRPV1) (natural protein)
chain: MEQRASLDSEESESPPQENSCLDPPDRDPNCKPPPVKPHIFTTRSRTRLFGKGDSEEASPLDCPYEEGGLASCPIITVSSVLTIQRPGDGPASVRPSSQDSVSAGEKPPR[letters of about 250 residues left out]EPECRHLSRKFTEWAYGPVHSSLYDLSCIDTCEKNSVLEVIAYSSSETPNRHDMLLVEPLNRLLQDKWDRFVKRIFYFNFFVYCLYMIIFTAAAYYRPVEGLPPYKLKNTVGDYFRVTGEILSVSGGVYFFFRGIQYFLQRRPSLKSLFVDSYSEILFFVQSLFMLVSVVLYFSQRKEYVASMVFSLAMGWTNMLYYTRGFQQMGIYAVMIEKMILRDLCRFMFVYLVFLFGFSTAVVTLIEDGKNNSLPMESTPHKCRGSACKPGNSYNSLYSTCLELFKFTIGMGDLEFTENYDFKAVFIILLLAYVILTYILLLNMLIALMGETVNKIAQESKNIWKLQRAITILDTEKS[letters of about 120 residues left out]
By stoichiometry N is commonly meant the number of molecules, sites or subunits per partner or assembly. For B1, the “stoichiometry N” value was found to be 4.

For the origin of these results see publication PMC10483596 (Proceedings of the National Academy of Sciences of the …, 2023).
